The text below walks through data of publication PMC10380293 (International Journal of Molecular Sciences, 2023).

As usually defined, the stoichiometry N is a count of units in the complex or per binding partner.

The data set concerns the molecule itself. Nature of the data set: asymmetrical flow field-flow fractionation (AF4); PCNA after 0 h at 37 °C, run at 25 °C in phosphate buffer pH 6.6 with NaCl, UV 280 nm, molecular weight estimated from a co-running size standard.

B1: PCNA^C148S (unlabeled) (natural protein)
chain: not shown
notes: proliferating cell nuclear antigen (PCNA), human, disease-associated (ATLD2) variant C148S; C148S made by site directed mutagenesis in pET28b-PCNA; also called PCNA variant C148S; source: E. coli BL21(DE3), purified (nickel NTA, dialysed against PBS)
As to B1, the “stoichiometry N” value is 3.
